Assay results as given in a collection of fitness landscapes (doi:10.1016/j.celrep.2020.107928).
In all, about 81,000 sequences were measured (“one-hybrid fitness for binding parS DNA”: median about -0.17, highest 2% from about 0.51 on). The list shows a part of the results.

B1: Caulobacter ParB omega fusion; a variant is named by its letters at X, in order, B8GW30 (parent)
chain: MESVVVGEPGMSEGRRGLGRGLSALLGEVDAAPAQAPGEQLGGSREAPIEILQRNPDQPRRTFREEDLEDLSNSIREKGVLQPILVRPSPDTAGEYQIVAGERAWRAAQRAGLKTVPIMVRELDDLAVLEIGIIENVQRADLNVLEEALSYKVLMEKFERTQENIAQTIGKSXSHVANXMRLLXLPDEVQSYLVSGELTAXHARAIAAAADPVALAKQIIEGGLSVRETEALARKAPNLSAGKSKGGRPPRVKDTDTQALESDLSSVLGLDVSIDHRGSTGTLTITYATLEQLDDLCNRLTRGI

Variants of: B1
Test: one-hybrid fitness for binding parS DNA (scaled: cognate 1, non-cognate 0); higher = stronger binding
Conditions: with parS DNA site
In short: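 Values were rescaled so that cognate is 1 and non-cognate is 0. Each is a fitness, the log change in a variant's read ratio to wild type from Illumina reads of plasmids before and after selection, with three replicate libraries pooled and variants under 10 reads dropped. Selection of the Caulobacter ParB libraries, four specificity codons randomised, used E. coli USO with a HIS3 reporter, site 19 bp from the promoter, on M9-minus-histidine with 0.1 mM IPTG and 5 mM 3-AT for 48 hours at 37°C.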

| Variant | one-hybrid fitness for binding parS DNA |
| --- | --- |
| QKHD | ≤ 0.2 |
| MNRW | ≤ 0.2 |
| NTNF | ≤ 0.2 |
| WKSS | ≤ 0.2 |
| NVEV | ≤ 0.2 |
| VMGT | ≤ 0.2 |
| QLVM | ≤ 0.2 |
| SSVY | ≤ 0.2 |
| VQTL | ≤ 0.2 |
| VDIV | ≤ 0.2 |
| QYDK | ≤ 0.2 |
| RYWK | ≤ 0.2 |
| VRSD | ≤ 0.2 |
| RGVP | ≤ 0.2 |
| ELNT | ≤ 0.2 |
| CCCT | ≤ 0.2 |
| QTSC | ≤ 0.2 |
| RQMP | ≤ 0.2 |
| HGWS | ≤ 0.2 |
| GATL | ≤ 0.2 |
| TRKQ | ≤ 0.2 |
| PRGQ | ≤ 0.2 |
| TSIY | ≤ 0.2 |
| IATN | ≤ 0.2 |
| YPTH | ≤ 0.2 |

| Variant | one-hybrid fitness for binding parS DNA |
| --- | --- |
| RFIW | ≤ 0.2 |
| TWQE | ≤ 0.2 |
| YPTM | ≤ 0.2 |
| RTQR | ≤ 0.2 |
| PYFG | ≤ 0.2 |
| NGCR | ≤ 0.2 |
| KILR | ≤ 0.2 |
| RRAH | ≤ 0.2 |
| GMKY | ≤ 0.2 |
| PYNV | ≤ 0.2 |
| WDVI | ≤ 0.2 |
| WYVG | ≤ 0.2 |
| QTWL | ≤ 0.2 |
| ASPW | ≤ 0.2 |
| PMAC | ≤ 0.2 |
| ACTS | ≤ 0.2 |
| PINS | ≤ 0.2 |
| QEES | ≤ 0.2 |
| RNQF | ≤ 0.2 |
| YGGC | ≤ 0.2 |
| GGII | ≤ 0.2 |
| QVPV | ≤ 0.2 |
| AFIL | ≤ 0.2 |
| LCKL | ≤ 0.2 |
| HQLI | ≤ 0.2 |

| Variant | one-hybrid fitness for binding parS DNA |
| --- | --- |
| GCAV | ≤ 0.2 |
| QSVY | ≤ 0.2 |
| MEKG | ≤ 0.2 |
| RRNV | ≤ 0.2 |
| GIEG | ≤ 0.2 |
| HKTS | ≤ 0.2 |
| DMHA | ≤ 0.2 |
| YSSM | ≤ 0.2 |
| HCCR | ≤ 0.2 |
| HEIR | ≤ 0.2 |
| RRDE | ≤ 0.2 |
| GAYD | ≤ 0.2 |
| VSNE | ≤ 0.2 |
| SACL | ≤ 0.2 |
| FFKL | ≤ 0.2 |
| PPIS | ≤ 0.2 |
| HSCG | ≤ 0.2 |
| ITLN | ≤ 0.2 |
| LLFT | ≤ 0.2 |
| FSVM | ≤ 0.2 |
| ETYC | ≤ 0.2 |
| LNNY | ≤ 0.2 |
| ILHG | ≤ 0.2 |
| TPDG | ≤ 0.2 |
| NNST | ≤ 0.2 |

| Variant | one-hybrid fitness for binding parS DNA |
| --- | --- |
| VLTD | ≤ 0.2 |
| SANA | ≤ 0.2 |
| VHTQ | ≤ 0.2 |
| YRWL | ≤ 0.2 |
| QGQF | ≤ 0.2 |
| YPNT | ≤ 0.2 |
| TYAT | ≤ 0.2 |
| ITHC | ≤ 0.2 |
| FFHR | ≤ 0.2 |
| MSQS | ≤ 0.2 |
| GNQA | ≤ 0.2 |
| VYSS | ≤ 0.2 |
| VEQS | ≤ 0.2 |
| LGWV | ≤ 0.2 |
| ERHP | ≤ 0.2 |
| DLYC | ≤ 0.2 |
| PDET | ≤ 0.2 |
| FVFS | ≤ 0.2 |
| QDGW | ≤ 0.2 |
| RYSG | 0.984 |
| LGQF | ≤ 0.2 |
| FVDG | ≤ 0.2 |
| SFYC | ≤ 0.2 |
| FCTF | ≤ 0.2 |
| FEGA | ≤ 0.2 |

| Variant | one-hybrid fitness for binding parS DNA |
| --- | --- |
| LDVM | ≤ 0.2 |
| KKLM | ≤ 0.2 |
| FLGE | ≤ 0.2 |
| HICV | ≤ 0.2 |
| KENL | ≤ 0.2 |
| VSSN | ≤ 0.2 |
| HLMF | ≤ 0.2 |
| VSER | ≤ 0.2 |
| EQMT | ≤ 0.2 |
| QRHS | ≤ 0.2 |
| QREG | ≤ 0.2 |
| QQYG | ≤ 0.2 |
| MWAV | ≤ 0.2 |
| RTFY | 0.479 |
| RFRY | 0.533 |
| QQNL | ≤ 0.2 |
| CTEC | ≤ 0.2 |
| AEYV | ≤ 0.2 |
| VPEI | ≤ 0.2 |
| HNEF | ≤ 0.2 |
| LAYM | ≤ 0.2 |
| LQPL | ≤ 0.2 |
| PNGR | ≤ 0.2 |
| TKGR | ≤ 0.2 |
| INDS | ≤ 0.2 |

| Variant | one-hybrid fitness for binding parS DNA |
| --- | --- |
| LHTL | ≤ 0.2 |
| KTEG | ≤ 0.2 |
| RIYG | 1.03 |
| FWLS | ≤ 0.2 |
| CAIT | ≤ 0.2 |
| YDPS | ≤ 0.2 |
| RDFM | ≤ 0.2 |
| DPAY | ≤ 0.2 |
| AFDS | ≤ 0.2 |
| AFMS | ≤ 0.2 |
| MNVM | ≤ 0.2 |
| QRNE | ≤ 0.2 |
| QPMS | ≤ 0.2 |
| AVRD | ≤ 0.2 |
| MHGS | ≤ 0.2 |
| KALC | ≤ 0.2 |
| RGHM | ≤ 0.2 |
| DSVG | ≤ 0.2 |
| GDYC | ≤ 0.2 |
| PMFI | ≤ 0.2 |
| SDKM | ≤ 0.2 |
| ALIC | ≤ 0.2 |
| WHTA | ≤ 0.2 |
| DEQR | ≤ 0.2 |
| QRSG | ≤ 0.2 |

| Variant | one-hybrid fitness for binding parS DNA |
| --- | --- |
| SYTE | ≤ 0.2 |
| RMEE | ≤ 0.2 |
| DTTA | ≤ 0.2 |
| YQSR | ≤ 0.2 |
| LTPP | ≤ 0.2 |
| NEMC | ≤ 0.2 |
| NRED | ≤ 0.2 |
| ARVH | ≤ 0.2 |
| CQVA | ≤ 0.2 |
| QRHV | ≤ 0.2 |
| GYTH | ≤ 0.2 |
| QTAD | ≤ 0.2 |
| TNTM | ≤ 0.2 |
| DATS | ≤ 0.2 |
| CHYK | ≤ 0.2 |
| TQNH | ≤ 0.2 |
| MTEG | ≤ 0.2 |
| SAWQ | ≤ 0.2 |
| KRYN | ≤ 0.2 |
| KCDL | ≤ 0.2 |
| QWPL | ≤ 0.2 |
| GLMW | ≤ 0.2 |
| QAQA | ≤ 0.2 |
| THHR | ≤ 0.2 |
| STHY | ≤ 0.2 |

| Variant | one-hybrid fitness for binding parS DNA |
| --- | --- |
| MHSA | ≤ 0.2 |
| QTSP | ≤ 0.2 |
| KAIM | ≤ 0.2 |
| ARTK | ≤ 0.2 |
| YIFL | ≤ 0.2 |
| RWCM | ≤ 0.2 |
| TIGC | ≤ 0.2 |
| IPIV | ≤ 0.2 |
| HLKK | ≤ 0.2 |
| IPKT | ≤ 0.2 |
| HGFM | ≤ 0.2 |
| LRGS | ≤ 0.2 |
| KPVM | ≤ 0.2 |
| LCSL | ≤ 0.2 |
| TCGS | ≤ 0.2 |
| RHNM | 0.291 |
| DHPF | ≤ 0.2 |
| MNST | ≤ 0.2 |
| DISR | ≤ 0.2 |
| QHAC | ≤ 0.2 |
